Consider 63 sequences from PMC12820563.

This is one part of the list. The list includes weakly bound sequences.

The target of the experiment is T1, MBP-FoxP3dN (UniProt Q99JB6).
T1 sequence: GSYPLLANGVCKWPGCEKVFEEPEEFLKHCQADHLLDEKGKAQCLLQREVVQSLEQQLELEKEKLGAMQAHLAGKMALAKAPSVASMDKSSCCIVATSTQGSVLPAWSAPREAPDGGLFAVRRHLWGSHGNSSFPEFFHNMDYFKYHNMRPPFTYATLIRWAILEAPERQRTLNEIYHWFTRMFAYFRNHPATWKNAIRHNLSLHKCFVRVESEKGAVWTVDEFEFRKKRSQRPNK
Kind of experiment: PD-seq (MBP pull-down with sequencing). As to conditions: 20 mM Tris-HCl pH 7.5, 100 mM NaCl, 1.5 mM MgCl2, 0.4 uM protein, 0.1 uM dsDNA library, 30 min, room temperature, amylose pull-down; high values mean tight binding; double strand, one strand shown.
As to “GATGATTGTTCTCCCAGCTGATGAATTTACGCGTTCGAGTAAACAAATTTTCCTAATCTTTCTGTTCAAGCGCCATCTAC”, the binding signal (RPM ratio (pull-down/input)) came to 1.62. In the case of “GATGATTGTTCTCCCAGCTGATGAATTCCTCAACTCGAGTAAACAAATTTTCCTAATCTTTCTGTTCAAGCGCCATCTAC” it was 0.243; in that of “GATGATTGTTCTCCCAGCTGATGAATTAGAGAGCTCGAGTAAACAAATTTTCCTAATCTTTCTGTTCAAGCGCCATCTAC”, 0.242; in that of “GATGATTGTTCTCCCAGCTGATGAATTATAAGCGTCGAGTAAACAAATTTTCCTAATCTTTCTGTTCAAGCGCCATCTAC”, 0.55. In the case of “GATGATTGTTCTCCCAGCTGATGAATTTACCACATCGAGTAAACAAATTTTCCTAATCTTTCTGTTCAAGCGCCATCTAC” it was 0.853; in that of “GATGATTGTTCTCCCAGCTGATGAATTTCACTTCTCGAGTAAACAAATTTTCCTAATCTTTCTGTTCAAGCGCCATCTAC”, 0.425; in that of “GATGATTGTTCTCCCAGCTGATGAATTGCGCTATTCGAGTAAACAAATTTTCCTAATCTTTCTGTTCAAGCGCCATCTAC”, 3.18. Consider “GATGATTGTTCTCCCAGCTGATGAATTATTGTGTTCGAGTAAACAAATTTTCCTAATCTTTCTGTTCAAGCGCCATCTAC”, for which the binding signal (RPM ratio (pull-down/input)) stood at 2.16. In the case of “GATGATTGTTCTCCCAGCTGATGAATTTTTCAGTTCGAGTAAACAAATTTTCCTAATCTTTCTGTTCAAGCGCCATCTAC” it was 0.248; in that of “GATGATTGTTCTCCCAGCTGATGAATTGAGTGTTTCGAGTAAACAAATTTTCCTAATCTTTCTGTTCAAGCGCCATCTAC”, 1.69.

With “GATGATTGTTCTCCCAGCTGATGAATTGTGTGGGTCGAGTAAACAAATTTTCCTAATCTTTCTGTTCAAGCGCCATCTAC”, the binding signal (RPM ratio (pull-down/input)) is 1.95. “GATGATTGTTCTCCCAGCTGATGAATTTGAAGCGTCGAGTAAACAAATTTTCCTAATCTTTCTGTTCAAGCGCCATCTAC”: the binding signal (RPM ratio (pull-down/input)) is 0.55.

As to “GATGATTGTTCTCCCAGCTGATGAATTAGAAAAATCGAGTAAACAAATTTTCCTAATCTTTCTGTTCAAGCGCCATCTAC”, the binding signal (RPM ratio (pull-down/input)) amounted to 0.154.

As for “GATGATTGTTCTCCCAGCTGATGAATTCTATGTTTCGAGTAAACAAATTTTCCTAATCTTTCTGTTCAAGCGCCATCTAC”, the binding signal (RPM ratio (pull-down/input)) is 1.69. On to “GATGATTGTTCTCCCAGCTGATGAATTTATAACATCGAGTAAACAAATTTTCCTAATCTTTCTGTTCAAGCGCCATCTAC”, for which the binding signal (RPM ratio (pull-down/input)) came out at 0.836.

In the case of “GATGATTGTTCTCCCAGCTGATGAATTGTAGGTATCGAGTAAACAAATTTTCCTAATCTTTCTGTTCAAGCGCCATCTAC”, the binding signal (RPM ratio (pull-down/input)) stood at 0.962.

Consider “GATGATTGTTCTCCCAGCTGATGAATTGCAGTCTTCGAGTAAACAAATTTTCCTAATCTTTCTGTTCAAGCGCCATCTAC”, for which the binding signal (RPM ratio (pull-down/input)) is 0.93. The figure for “GATGATTGTTCTCCCAGCTGATGAATTCCGCAGCTCGAGTAAACAAATTTTCCTAATCTTTCTGTTCAAGCGCCATCTAC” is 2.1. As for “GATGATTGTTCTCCCAGCTGATGAATTAAACAGCTCGAGTAAACAAATTTTCCTAATCTTTCTGTTCAAGCGCCATCTAC”, the binding signal (RPM ratio (pull-down/input)) came to 0.418.

On to “GATGATTGTTCTCCCAGCTGATGAATTGAACAACTCGAGTAAACAAATTTTCCTAATCTTTCTGTTCAAGCGCCATCTAC”, for which the binding signal (RPM ratio (pull-down/input)) is 0.424. Regarding “GATGATTGTTCTCCCAGCTGATGAATTCGGGGGATCGAGTAAACAAATTTTCCTAATCTTTCTGTTCAAGCGCCATCTAC”, the binding signal (RPM ratio (pull-down/input)) is 0.323. For the sequence “GATGATTGTTCTCCCAGCTGATGAATTTTTGCGATCGAGTAAACAAATTTTCCTAATCTTTCTGTTCAAGCGCCATCTAC”, the binding signal (RPM ratio (pull-down/input)) is 0.78. Take “GATGATTGTTCTCCCAGCTGATGAATTTAAATGCTCGAGTAAACAAATTTTCCTAATCTTTCTGTTCAAGCGCCATCTAC”: the binding signal (RPM ratio (pull-down/input)) came to 0.945. As to “GATGATTGTTCTCCCAGCTGATGAATTGCCTCTATCGAGTAAACAAATTTTCCTAATCTTTCTGTTCAAGCGCCATCTAC”, the binding signal (RPM ratio (pull-down/input)) was 1.41. “GATGATTGTTCTCCCAGCTGATGAATTGGTTCCTTCGAGTAAACAAATTTTCCTAATCTTTCTGTTCAAGCGCCATCTAC”: the binding signal (RPM ratio (pull-down/input)) stood at 0.358.

As for “GATGATTGTTCTCCCAGCTGATGAATTGGCAGAATCGAGTAAACAAATTTTCCTAATCTTTCTGTTCAAGCGCCATCTAC”, the binding signal (RPM ratio (pull-down/input)) is 0.222. In the case of “GATGATTGTTCTCCCAGCTGATGAATTTGCATCCTCGAGTAAACAAATTTTCCTAATCTTTCTGTTCAAGCGCCATCTAC” it was 7.55. Turning to “GATGATTGTTCTCCCAGCTGATGAATTCTAATTGTCGAGTAAACAAATTTTCCTAATCTTTCTGTTCAAGCGCCATCTAC”, the binding signal (RPM ratio (pull-down/input)) came to 1.95. In the case of “GATGATTGTTCTCCCAGCTGATGAATTATGACCGTCGAGTAAACAAATTTTCCTAATCTTTCTGTTCAAGCGCCATCTAC” it was 0.522. In the case of “GATGATTGTTCTCCCAGCTGATGAATTATCCCTCTCGAGTAAACAAATTTTCCTAATCTTTCTGTTCAAGCGCCATCTAC” it was 0.319; in that of “GATGATTGTTCTCCCAGCTGATGAATTTCGGGTCTCGAGTAAACAAATTTTCCTAATCTTTCTGTTCAAGCGCCATCTAC”, 0.637. The figure for “GATGATTGTTCTCCCAGCTGATGAATTTATGCCCTCGAGTAAACAAATTTTCCTAATCTTTCTGTTCAAGCGCCATCTAC” is 1.25. Regarding “GATGATTGTTCTCCCAGCTGATGAATTCGTGGTCTCGAGTAAACAAATTTTCCTAATCTTTCTGTTCAAGCGCCATCTAC”, the binding signal (RPM ratio (pull-down/input)) turned out to be 1.24. On to “GATGATTGTTCTCCCAGCTGATGAATTCATTAAGTCGAGTAAACAAATTTTCCTAATCTTTCTGTTCAAGCGCCATCTAC”, for which the binding signal (RPM ratio (pull-down/input)) worked out at 0.249.

As to “GATGATTGTTCTCCCAGCTGATGAATTGTCACATTCGAGTAAACAAATTTTCCTAATCTTTCTGTTCAAGCGCCATCTAC”, the binding signal (RPM ratio (pull-down/input)) is 0.685. The figure for “GATGATTGTTCTCCCAGCTGATGAATTCCTAGACTCGAGTAAACAAATTTTCCTAATCTTTCTGTTCAAGCGCCATCTAC” is 0.209; for “GATGATTGTTCTCCCAGCTGATGAATTTTATCTCTCGAGTAAACAAATTTTCCTAATCTTTCTGTTCAAGCGCCATCTAC” it is 0.547; for “GATGATTGTTCTCCCAGCTGATGAATTAATGGGTTCGAGTAAACAAATTTTCCTAATCTTTCTGTTCAAGCGCCATCTAC” it is 0.49. For “GATGATTGTTCTCCCAGCTGATGAATTTGTCAGGTCGAGTAAACAAATTTTCCTAATCTTTCTGTTCAAGCGCCATCTAC”, the binding signal (RPM ratio (pull-down/input)) amounted to 2.36. In the case of “GATGATTGTTCTCCCAGCTGATGAATTGTTCTTATCGAGTAAACAAATTTTCCTAATCTTTCTGTTCAAGCGCCATCTAC” it was 0.457; in that of “GATGATTGTTCTCCCAGCTGATGAATTATTCTAGTCGAGTAAACAAATTTTCCTAATCTTTCTGTTCAAGCGCCATCTAC”, 0.256; in that of “GATGATTGTTCTCCCAGCTGATGAATTAGCGACATCGAGTAAACAAATTTTCCTAATCTTTCTGTTCAAGCGCCATCTAC”, 0.71. The figure for “GATGATTGTTCTCCCAGCTGATGAATTGAGTCTGTCGAGTAAACAAATTTTCCTAATCTTTCTGTTCAAGCGCCATCTAC” is 0.453. As for “GATGATTGTTCTCCCAGCTGATGAATTGCGCCACTCGAGTAAACAAATTTTCCTAATCTTTCTGTTCAAGCGCCATCTAC”, the binding signal (RPM ratio (pull-down/input)) stood at 7.19. As for “GATGATTGTTCTCCCAGCTGATGAATTACTCTGATCGAGTAAACAAATTTTCCTAATCTTTCTGTTCAAGCGCCATCTAC”, the binding signal (RPM ratio (pull-down/input)) was 0.271.

Turning to “GATGATTGTTCTCCCAGCTGATGAATTTAGTGCGTCGAGTAAACAAATTTTCCTAATCTTTCTGTTCAAGCGCCATCTAC”, the binding signal (RPM ratio (pull-down/input)) worked out at 1.28.

With “GATGATTGTTCTCCCAGCTGATGAATTCCTTTACTCGAGTAAACAAATTTTCCTAATCTTTCTGTTCAAGCGCCATCTAC”, the binding signal (RPM ratio (pull-down/input)) was 0.576.

With “GATGATTGTTCTCCCAGCTGATGAATTGTCCGGTTCGAGTAAACAAATTTTCCTAATCTTTCTGTTCAAGCGCCATCTAC”, the binding signal (RPM ratio (pull-down/input)) worked out at 0.283. The figure for “GATGATTGTTCTCCCAGCTGATGAATTCACTCCCTCGAGTAAACAAATTTTCCTAATCTTTCTGTTCAAGCGCCATCTAC” is 0.315; for “GATGATTGTTCTCCCAGCTGATGAATTCCAAAATTCGAGTAAACAAATTTTCCTAATCTTTCTGTTCAAGCGCCATCTAC” it is 0.213. The figure for “GATGATTGTTCTCCCAGCTGATGAATTGCAGTGTTCGAGTAAACAAATTTTCCTAATCTTTCTGTTCAAGCGCCATCTAC” is 1.23; for “GATGATTGTTCTCCCAGCTGATGAATTCTTACGGTCGAGTAAACAAATTTTCCTAATCTTTCTGTTCAAGCGCCATCTAC” it is 0.26; for “GATGATTGTTCTCCCAGCTGATGAATTACGGAGATCGAGTAAACAAATTTTCCTAATCTTTCTGTTCAAGCGCCATCTAC” it is 0.285. For the sequence “GATGATTGTTCTCCCAGCTGATGAATTGATACTATCGAGTAAACAAATTTTCCTAATCTTTCTGTTCAAGCGCCATCTAC”, the binding signal (RPM ratio (pull-down/input)) is 1.24. The figure for “GATGATTGTTCTCCCAGCTGATGAATTGGACCTTTCGAGTAAACAAATTTTCCTAATCTTTCTGTTCAAGCGCCATCTAC” is 0.275. The figure for “GATGATTGTTCTCCCAGCTGATGAATTAGAGATATCGAGTAAACAAATTTTCCTAATCTTTCTGTTCAAGCGCCATCTAC” is 0.353; for “GATGATTGTTCTCCCAGCTGATGAATTGGGTAAATCGAGTAAACAAATTTTCCTAATCTTTCTGTTCAAGCGCCATCTAC” it is 0.297. For the sequence “GATGATTGTTCTCCCAGCTGATGAATTATAATCATCGAGTAAACAAATTTTCCTAATCTTTCTGTTCAAGCGCCATCTAC”, the binding signal (RPM ratio (pull-down/input)) was determined as 0.744. “GATGATTGTTCTCCCAGCTGATGAATTACACTCCTCGAGTAAACAAATTTTCCTAATCTTTCTGTTCAAGCGCCATCTAC”: the binding signal (RPM ratio (pull-down/input)) was 0.571. For the sequence “GATGATTGTTCTCCCAGCTGATGAATTTCTAGGGTCGAGTAAACAAATTTTCCTAATCTTTCTGTTCAAGCGCCATCTAC”, the binding signal (RPM ratio (pull-down/input)) is 0.194.

For “GATGATTGTTCTCCCAGCTGATGAATTCGGATAGTCGAGTAAACAAATTTTCCTAATCTTTCTGTTCAAGCGCCATCTAC”, the binding signal (RPM ratio (pull-down/input)) was 0.48. Consider “GATGATTGTTCTCCCAGCTGATGAATTCTGTGATTCGAGTAAACAAATTTTCCTAATCTTTCTGTTCAAGCGCCATCTAC”, for which the binding signal (RPM ratio (pull-down/input)) turned out to be 3.34.

With “GATGATTGTTCTCCCAGCTGATGAATTTAATCCTTCGAGTAAACAAATTTTCCTAATCTTTCTGTTCAAGCGCCATCTAC”, the binding signal (RPM ratio (pull-down/input)) was 0.322.
